Among all 54,000 compounds or so, about 120 (0.22%) were called active. Inconclusive results, whose numbers are uncertain, are shown with a selection of clear calls. Calls follow the shape of the dose curve; as a rule, active = well fitted inhibition curve with a large enough effect; inconclusive = small, poorly fitted or top-dose-only effect, or effect the other way; inactive = flat fitted curve, though single readings scatter. No potency is given beside an inconclusive call; the fits are too rough.
The compounds below were run against Fumarate hydratase, mitochondrial (Homo sapiens) (UniProt P07954) (assay: Identification of activators of human fumarate hydratase by quantitative high-throughput screening). Conditions: FH coupled MDH/diaphorase resazurin fluorescence, 15 min; activity change, negative = inhibition: at 79.9 µM (top of the series).
UniProt P07954, sequence (P07954 whole entry, looked up): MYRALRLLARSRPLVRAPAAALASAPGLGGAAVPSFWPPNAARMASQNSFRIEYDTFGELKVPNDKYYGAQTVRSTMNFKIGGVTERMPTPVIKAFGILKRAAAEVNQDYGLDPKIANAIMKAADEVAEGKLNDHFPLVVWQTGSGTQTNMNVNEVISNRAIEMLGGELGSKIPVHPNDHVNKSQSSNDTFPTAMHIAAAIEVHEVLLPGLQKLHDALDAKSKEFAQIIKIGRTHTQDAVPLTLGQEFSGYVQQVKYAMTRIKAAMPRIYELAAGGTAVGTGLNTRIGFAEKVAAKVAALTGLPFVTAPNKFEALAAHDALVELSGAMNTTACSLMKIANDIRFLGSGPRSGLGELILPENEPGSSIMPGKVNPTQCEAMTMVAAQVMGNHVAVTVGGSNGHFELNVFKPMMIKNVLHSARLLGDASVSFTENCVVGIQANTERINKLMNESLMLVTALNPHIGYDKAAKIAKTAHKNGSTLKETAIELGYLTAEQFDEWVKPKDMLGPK
% is scaled to controls: 0 for no effect and ±100 for the full control effect; potency is read from the fitted curve at half-maximal effect; tags tell the direction and shape of the fitted curve.
Also: the screen sought activators but most active calls are inhibition curves; nearly all actives have a fitted effect of over 45% in size.

| Compound | Potency | activity change, negative = inhibition |
| --- | --- | --- |
| CCn1c(=O)n(CC)c2cc(N3CCCCC3)c(NC(=O)Nc3ccccc3C(F)(F)F)cc21 | inconclusive [inhibitor, single point] |  |
| COc1ccc(Cl)cc1NC(=O)CSC1=Nc2ccccc2C2=NC(CC(=O)NCc3ccc4c(c3)OCO4)C(=O)N12 (centres undefined) | inconclusive [inhibitor, single point] |  |
| COc1ccc(Cl)cc1NC(=O)c1c(NCc2sccc2C)sc2c1CCCC2 | inconclusive [inhibitor, partial curve, poor fit] |  |
| C=C1C(O)C[C@@H]2C(C(=O)O)=CO[C@@H](O[C@@H]3O[C@H](CO)[C@@H](O)[C@H](O)[C@H]3OC(=O)c3ccc(O)cc3)[C@H]12 (some centres undefined) |  | inactive: 0.209% [at 53.3 µM] |
| O=C(Nc1ccc2nc(SCC(=O)N3CCCc4ccccc43)sc2c1)c1ccc(F)cc1 |  | inactive: -6.95% |
| Cc1cc(C)c2c(C)c(C(=O)N3CCC(c4nc5ccccc5s4)CC3)oc2c1 | inconclusive [inhibitor, single point] |  |
| CCCNCCc1ccc(NS(=O)(=O)c2ccc(OC(F)(F)F)cc2)cc1 |  | inactive: 0.0265% |
| CCN(CC)C(=O)Cn1cc(SCC(=O)Nc2ccc(C)cc2)c2ccccc21 | inconclusive [inhibitor, single point] |  |
| CCOC(=O)N1CCc2c(sc3c2c(=O)n(-c2ccc(Cl)cc2)c(=O)n3CC(=O)Nc2ccccc2)C1 |  | inactive: 0.989% |
| Cc1cccc(Cn2c(SCc3ccc(C(=O)NC4CCCCC4)cc3)nc3cccnc32)c1 | inconclusive [inhibitor, partial curve, poor fit] |  |
| CCOC(=O)c1c(C)oc2nc(C)nc(NCc3cccc(OC)c3)c12 | inconclusive [inhibitor, single point] |  |
| O=C(Nc1cccc(Cl)c1)c1ccc2nc(Cc3ccccc3)oc2c1 | inconclusive [inhibitor, single point] |  |
| CCc1cnc2c(c1SCC(=O)NCc1ccccc1)c(=O)n(C)c(=O)n2C | inconclusive [inhibitor, full curve, poor fit] |  |
| COc1cc(C2c3c(oc4ccccc4c3=O)C(=O)N2Cc2ccccc2Cl)ccc1O (centres undefined) | inconclusive [inhibitor, partial curve, poor fit] |  |
| O=C1NC(c2cccc([N+](=O)[O-])c2)=CCN1c1ccccc1O | inconclusive [inhibitor, partial curve, poor fit] |  |
| Cc1ccccc1OCC(=O)Nc1ccccc1C(=O)OCc1cc(=O)n2c(C)csc2n1 |  | inactive: 2.36% |
| CC(Oc1ccccc1)C(=O)Nc1ccccc1C(=O)OCc1cc(=O)n2nc(C3CC3)sc2n1 (centres undefined) |  | inactive: 1.03% |
| COc1ccc(CCNC(=O)c2c(Nc3ccccc3C)sc(C(=O)c3ccccc3)c2N)cc1OC | inconclusive [activator, single point] |  |
| COc1ccc(-c2nn(C)c3sc(C(=O)Nc4cc(OC)c(OC)c(OC)c4)cc23)cc1OC | inconclusive [inhibitor, partial curve, poor fit] |  |
| CCOC(=O)c1cc2c(=O)n3ccccc3nc2n(CC2CCCO2)c1=NC(=O)c1ccc(OC)cc1OC (centres undefined) | inconclusive [inhibitor, single point] |  |

| Compound | Potency | activity change, negative = inhibition |
| --- | --- | --- |
| CCCCCC(=O)Nc1ccc(NC(=O)c2cc3ccccc3o2)c(OC)c1 |  | inactive: -0.126% |
| CCOc1ccc(C(=O)Nc2ccc(-n3nncc3-c3ccccc3)cc2)cc1OCC |  | inconclusive: -34.6% [inhibitor] |
| CCN(C(=O)c1cc2c(=O)n3cccc(C)c3nc2s1)c1ccc(C)c(C)c1 | inconclusive [inhibitor, partial curve, poor fit] |  |
| COc1cccc(CNC(=O)CSC2=Nc3ccccc3C3=NC(C(C)C)C(=O)N23)c1 (centres undefined) |  | inactive: 3.4% |
| CCOC(=O)c1ccc(NC(=O)C2(S(=O)(=O)c3ccc(Cl)cc3)CC2)cc1 | inconclusive [inhibitor, partial curve, poor fit] |  |
| O=C(Nc1noc2ccccc12)c1ccc(F)cc1 |  | inactive: -11.8% |
| Cc1ccc(C)c(N2CCN(CCCNC(=O)c3ccc4nc(N5CCCCC5)sc4c3)CC2)c1 | inconclusive [inhibitor, partial curve, poor fit] |  |
| Cc1ccc(-c2nnc(Nc3ccccc3)c3ccccc23)cc1S(=O)(=O)NCc1nc2ccccc2[nH]1 | inconclusive [inhibitor, partial curve, poor fit] |  |
| CC(C)OC(=O)CCCC=CC[C@@H]1[C@H](C=C[C@@H](O)COc2cccc(C(F)(F)F)c2)[C@H](O)C[C@@H]1O | inconclusive [inhibitor, single point] |  |
| CCOc1ccc(NC(=O)CN(c2ccc(Cl)cc2C)S(=O)(=O)c2ccccc2)cc1 | inconclusive [inhibitor, single point] |  |
| Cn1cc(C(=O)N2CCN(c3cccc(C(F)(F)F)c3)CC2)c2c3ccccc3n(C)c2c1=O | inconclusive [inhibitor, partial curve] |  |
| Cc1ccc(C(=O)Nc2cc3c(cc2N2CCCC2)n(C)c(=O)c(=O)n3C)cc1 | inconclusive [inhibitor, partial curve, poor fit] |  |
| COc1ccc(C(=O)Nc2cc(C(C)C)c(O)c(S(=O)(=O)c3ccc(Cl)cc3)c2C)cc1 |  | inactive: -16.3% |
| CCN(CC)c1ccc(CN(C(=O)Cc2coc3ccc(C)cc23)C2CCS(=O)(=O)C2)cc1 (centres undefined) | inconclusive [inhibitor, full curve, poor fit] |  |
| CCn1nc(C)c2c(-c3ccccc3)cc(=O)n(C(C)C(=O)NCc3cccc(OC)c3)c21 (centres undefined) | inconclusive [inhibitor, single point] |  |
| CCN(C(=O)c1cc2c(=O)oc3ccc(C)cc3c2s1)c1cc(OC)ccc1OC | inconclusive [inhibitor, partial curve, poor fit] |  |
| CCN(CC)CCNC(=O)c1ccc2c(c1)NC(=O)C(CS(=O)(=O)Cc1cccc(Br)c1)N2 (centres undefined) |  | inactive: -22.4% |
| COc1cc(Cl)c(C)cc1NC(=O)c1ccc2c(SCC(=O)O)c3c(nc2c1)CCCC3 | inconclusive [inhibitor, partial curve, poor fit] |  |
| O=C(Nc1ccc2oc(-c3cccnc3)nc2c1)c1ccc(-c2ccc(OC(F)(F)F)cc2)o1 |  | inactive: -4.42% |
| O=C(Nc1ccc2nc(SCc3ccccc3)sc2c1)c1ccccc1F |  | inactive: -1.88% |

| Compound | Potency | activity change, negative = inhibition |
| --- | --- | --- |
| O=C(Nc1ccc(F)c(Cl)c1)c1cc(S(=O)(=O)N2CCc3ccccc3C2)ccc1F | inconclusive [inhibitor, partial curve, poor fit] |  |
| O=C(Cn1ccc2cc(S(=O)(=O)N3CCCCC3)ccc21)NCCc1ccc(Cl)cc1 | inconclusive [inhibitor, partial curve, poor fit] |  |
| Cc1nc2nc(-c3ccc(Cl)cc3Cl)nn2c(C)c1CCC(=O)Nc1ccc(F)cc1 |  | inactive: 8.22% |
| CCOC(=O)c1c(C)oc2nc(C)nc(NCc3ccccc3OCC)c12 | inconclusive [inhibitor, partial curve, poor fit] |  |
| CC(=O)O[C@H]1CC[C@@]2(C)C(CC[C@@H](C)[C@]23Cc2c(O)cc4c(c2O3)CN([C@@H](CCC(=O)O)C(=O)O)C4=O)C1(C)C (some centres undefined) |  | inactive: 3.22% [at 53.3 µM] |
| Cc1ccc(S(=O)(=O)N2CCC(c3ccncc3)CC2)c(C)c1 |  | inactive: -1.72% |
| COc1cccc(Cn2c(=O)n(-c3ccccc3C)c(=O)c3c2c2cc(C)ccc2n3C)c1 | inconclusive [inhibitor, single point] |  |
| Cc1ccc(C)c(NC(=O)CN(CCc2ccccc2)S(=O)(=O)c2ccccc2)c1 | inconclusive [inhibitor, partial curve, poor fit] |  |
| CCOc1ccccc1/C=C/c1onc(C)c1S(=O)(=O)N1CCC(C(=O)N(CC)CC)CC1 | inconclusive [inhibitor, single point] |  |
| NC(=O)c1cc(S(=O)(=O)N2CCN(c3ccc(F)cc3)CC2)cs1 |  | inactive: 5.12% |
| Cn1c(=O)oc2cc(S(=O)(=O)CCC(=O)N3CCN(c4ccccc4)CC3)ccc21 | inconclusive [inhibitor, partial curve, poor fit] |  |
| Cc1oc2ccc(O)c(CN(C)Cc3ccccc3)c2c1C(=O)Nc1cccc(C(F)(F)F)c1 | inconclusive [inhibitor, partial curve, poor fit] |  |
| CCN(C(=O)Cc1nc(-c2ccc(OC)cc2)no1)c1cccc(Cl)c1 | inconclusive [inhibitor, single point] |  |
| Cc1cccc(NS(=O)(=O)c2ccc3[nH]c(=O)ccc3c2)c1C | inconclusive [inhibitor, partial curve, poor fit] |  |
| C=C(CCC1C(C)(O)CCC2C(C)(C)C(O)CCC12C)C(O)CO (centres undefined) |  | inactive: -12.6% [at 53.3 µM] |
| COC(=O)C(Cc1c[nH]c2ccccc12)NC(=O)COc1ccc(Cl)cc1Cl (centres undefined) | inconclusive [inhibitor, single point] |  |
| CCOc1ccc(-n2c(CCC(=O)O)ccc2-c2ccc(Br)cc2)cc1 | inconclusive [inhibitor, partial curve, poor fit] |  |
| CC1=Nc2cc(C(=O)NCCc3ccc(Cl)cc3)ccc2Sc2ccc(C)cc21 | inconclusive [inhibitor, single point] |  |
| Cc1ccc(C(C)C)c(OCC(=O)Nc2cccc(NC(=O)c3ccco3)c2)c1 | inconclusive [inhibitor, single point] |  |
